# Assay results as given in the supplement of paper PMC3334620.
# In all, about 33,000 sequences were measured (“E-score (-0.5 to 0.5)”: median about -0.053, highest 2% from about 0.37 on). The list shows a part of the results.
# Molecular target: Hap1 (UniProt P0CE41)
# Experiment: PBM E-score (8-mer binding enrichment) (E-score (-0.5 to 0.5)); higher = stronger / more preferred TF binding; most listed sequences are background and not binding sites
# Conditions: protein concentration: 200 nM; construct: GST-DNA-binding domain
# Procedure, shortened: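 Masliner-normalised scans of fluorescent anti-GST signal were the basis for scoring. That signal came from GST-tagged yeast transcription factors applied at about 100-200 nM to double-stranded universal all-10-mer Agilent arrays on fresh or once-stripped slides. Each ungapped eight-base word, pooled with its reverse complement, received an E-score from the Universal PBM Analysis Suite.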
# UniProt P0CE41, sequence (P0CE41 whole entry): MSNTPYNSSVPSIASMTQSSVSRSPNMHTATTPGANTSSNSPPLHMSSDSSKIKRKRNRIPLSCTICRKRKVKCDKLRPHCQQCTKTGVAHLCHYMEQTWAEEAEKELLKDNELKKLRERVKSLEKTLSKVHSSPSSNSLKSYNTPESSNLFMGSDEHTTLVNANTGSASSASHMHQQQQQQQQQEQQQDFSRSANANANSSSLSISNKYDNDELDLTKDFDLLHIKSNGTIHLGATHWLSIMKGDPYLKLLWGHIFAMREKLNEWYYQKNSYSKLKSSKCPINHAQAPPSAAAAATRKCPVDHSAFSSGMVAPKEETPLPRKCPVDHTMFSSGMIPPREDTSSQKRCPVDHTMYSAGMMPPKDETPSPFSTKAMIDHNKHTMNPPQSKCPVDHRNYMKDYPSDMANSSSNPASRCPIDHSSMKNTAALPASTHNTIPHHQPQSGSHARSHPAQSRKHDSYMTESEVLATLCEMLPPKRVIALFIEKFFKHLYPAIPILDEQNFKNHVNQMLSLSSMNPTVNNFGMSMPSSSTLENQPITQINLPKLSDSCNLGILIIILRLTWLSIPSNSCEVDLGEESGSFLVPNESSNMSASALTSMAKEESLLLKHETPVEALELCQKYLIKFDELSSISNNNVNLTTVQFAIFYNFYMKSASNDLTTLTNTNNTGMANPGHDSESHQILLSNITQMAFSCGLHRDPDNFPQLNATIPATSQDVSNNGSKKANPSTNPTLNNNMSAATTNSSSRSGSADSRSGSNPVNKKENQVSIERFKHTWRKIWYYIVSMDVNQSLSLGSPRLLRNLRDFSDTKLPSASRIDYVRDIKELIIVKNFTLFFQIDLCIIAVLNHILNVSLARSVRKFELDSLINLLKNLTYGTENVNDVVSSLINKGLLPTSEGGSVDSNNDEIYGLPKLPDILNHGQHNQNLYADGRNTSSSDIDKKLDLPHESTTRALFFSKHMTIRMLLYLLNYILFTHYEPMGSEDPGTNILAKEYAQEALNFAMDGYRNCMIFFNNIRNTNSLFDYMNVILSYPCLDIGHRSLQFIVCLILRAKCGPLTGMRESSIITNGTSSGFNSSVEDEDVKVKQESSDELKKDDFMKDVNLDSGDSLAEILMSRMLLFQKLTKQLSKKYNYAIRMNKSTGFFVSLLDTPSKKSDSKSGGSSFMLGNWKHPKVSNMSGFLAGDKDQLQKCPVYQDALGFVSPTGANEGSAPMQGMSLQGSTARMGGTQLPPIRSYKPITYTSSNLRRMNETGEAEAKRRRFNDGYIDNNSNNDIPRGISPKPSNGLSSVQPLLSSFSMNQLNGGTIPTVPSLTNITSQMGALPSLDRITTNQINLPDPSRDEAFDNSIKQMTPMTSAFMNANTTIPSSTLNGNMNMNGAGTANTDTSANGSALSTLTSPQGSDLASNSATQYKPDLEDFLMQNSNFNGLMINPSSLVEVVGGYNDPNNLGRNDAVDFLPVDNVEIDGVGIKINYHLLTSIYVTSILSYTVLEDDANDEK
row,Sequence,PBM E-score
1,AACGCTAT,-0.0481
2,ACGATCCT,-0.267
3,ACTGTCCC,-0.034
4,AAGAGGGC,-0.271
5,TAGTCGCA,0.045
6,CGAATGCG,0.224
7,GGGCTGCA,-0.0068
8,GGCTGTAC,0.0566
9,ATCGACCC,0.165
10,AAGGATGG,-0.188
11,GGTAATGA,0.0402
12,CAAATTAG,0.0251
13,AAATGTTA,-0.215
14,CGTCCGCC,0.281
15,GATGCGGA,0.169
16,CCTGGAAC,-0.227
17,GGGTGCAC,0.0546
18,CCAGATCA,-0.00695
19,GTCTCTCA,-0.152
20,ATAATACC,0.15
21,AGGTCAAC,-0.0982
22,CCTGGCCA,-0.224
23,ATCGTCGA,-0.161
24,GCTAGAAC,-0.185

row,Sequence,PBM E-score
1,CTAGACTA,-0.191
2,CTTAAACA,0.0328
3,CTAGGGGC,-0.123
4,GCCAGTAC,-0.0313
5,GACTGGAC,0.0527
6,ATCGAGGG,-0.161
7,ACTACTGG,-0.14
8,CTGTCAGC,-0.0655
9,CGCAACCC,-0.0198
10,CGAATGCC,0.18
11,CCTCATCG,0.101
12,CTTTAGTC,-0.142
13,ATGCCGCG,0.221
14,GAGGTAGA,0.0169
15,AACCCTTG,-0.122
16,ATCAGGCG,-0.011
17,ATAACCGC,0.157
18,AATGCACA,-0.149
19,AGCTAATA,-0.15
20,CATCGGAA,0.297
21,CATAAACA,-0.125
22,ACAGGTCT,-0.215
23,GTGGAAAC,-0.00378
24,GAGTACAC,-0.0859

row,Sequence,PBM E-score
1,CTAGGTTA,0.0585
2,CGTTTAGC,0.115
3,AAATTGAG,-0.0939
4,ATTAGCGG,0.253
5,CGCTTTCC,-0.0127
6,CAGCCAAA,-0.049
7,AAGTGGTG,-0.199
8,CCGAGTCG,0.316
9,TAACGGCA,0.234
10,AACCTGCG,0.0937
11,ACTCTTAA,-0.173
12,ACTCATGC,-0.146
13,ACACTCAC,0.0776
14,GACTGGCC,0.163
15,CCACGTGC,-0.26
16,GCATCAAA,-0.148
17,AAGACTAC,0.0593
18,ATAGACTA,-0.331
19,CCCACTAC,-0.0714
20,CATCTACA,-0.158
21,AAGCAAGT,-0.0508
22,ATCCAAGC,-0.227
23,GGGTCATA,-0.00686
24,AACACGGG,-0.0573

row,Sequence,PBM E-score
1,ACAAATCC,0.136
2,CCGTAAGC,0.115
3,GTGGTCGA,-0.228
4,AGACGCAC,-0.0101
5,CCTCGCCA,-0.206
6,GGCGGCTA,0.0808
7,AGATCCTA,-0.304
8,CACCTTGA,-0.0141
9,ACCCACGC,-0.00311
10,TTCGAGAA,-0.254
11,CCACGTGG,-0.282
12,CAATCTAA,-0.0312
13,AGTGTATA,-0.337
14,GAGTTCGC,0.195
15,ACTCCAGG,-0.00965
16,GCTAGTAA,-0.0325
17,CGCGTGAG,-0.0389
18,AGCGAGCT,0.135
19,AGGTTCAC,-0.119
20,GACCGGTA,0.243
21,AAACTACT,-0.0832
22,AAAGATGT,-0.104
